In all, about 81,000 sequences were measured (“one-hybrid fitness for binding NBS DNA”: median about -0.1, highest 2% from about 0.36 on). The list shows a part of the results. Where only a bound is given, the exact number is not on record here.

B1: Caulobacter ParB omega fusion; a variant is named by its letters at X, in order, B8GW30 (parent)
chain: MESVVVGEPGMSEGRRGLGRGLSALLGEVDAAPAQAPGEQLGGSREAPIEILQRNPDQPRRTFREEDLEDLSNSIREKGVLQPILVRPSPDTAGEYQIVAGERAWRAAQRAGLKTVPIMVRELDDLAVLEIGIIENVQRADLNVLEEALSYKVLMEKFERTQENIAQTIGKSXSHVANXMRLLXLPDEVQSYLVSGELTAXHARAIAAAADPVALAKQIIEGGLSVRETEALARKAPNLSAGKSKGGRPPRVKDTDTQALESDLSSVLGLDVSIDHRGSTGTLTITYATLEQLDDLCNRLTRGI

This assay covers variants of B1. Put plainly: one-hybrid fitness for binding NBS DNA (the Noc-binding site; scaled: cognate 1, non-cognate 0); higher = stronger binding. Conditions: with NBS DNA site. In a few lines:
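Values were rescaled so that cognate is 1 and non-cognate is 0. Each is a fitness, the log change in a variant's read ratio to wild type from Illumina reads of plasmids before and after selection, with three replicate libraries pooled and variants under 10 reads dropped. Selection of the Caulobacter ParB libraries, four specificity codons randomised, used E. coli USO with a HIS3 reporter, site 19 bp from the promoter, on M9-minus-histidine with 0.1 mM IPTG and 5 mM 3-AT for 48 hours at 37°C.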
Regarding NPTV, the “one-hybrid fitness for binding NBS DNA” value is at most 0.2.
In the case of AVNC, the “one-hybrid fitness for binding NBS DNA” value was at most 0.2.
For HAGE, the “one-hybrid fitness for binding NBS DNA” value was at most 0.2.
Take GVTT: the “one-hybrid fitness for binding NBS DNA” value was at most 0.2.
As for NVLV, the “one-hybrid fitness for binding NBS DNA” value is at most 0.2.
Under INWR stands at most 0.2; under QPSL, at most 0.2.
Under RDDM stands at most 0.2; under QWGG, at most 0.2.
For KYYG, the “one-hybrid fitness for binding NBS DNA” value was at most 0.2.
Consider LYTD, for which the “one-hybrid fitness for binding NBS DNA” value is at most 0.2.
For QVQT, the “one-hybrid fitness for binding NBS DNA” value is 0.318.
For the variant EYDL, the “one-hybrid fitness for binding NBS DNA” value was at most 0.2.
In the case of MLAY, the “one-hybrid fitness for binding NBS DNA” value is at most 0.2.
Consider AHVT, for which the “one-hybrid fitness for binding NBS DNA” value was at most 0.2.
As for TRAP, the “one-hybrid fitness for binding NBS DNA” value was at most 0.2.
As for MTMK, the “one-hybrid fitness for binding NBS DNA” value is at most 0.2.
Take LNVC: the “one-hybrid fitness for binding NBS DNA” value was at most 0.2.
To VMET belongs at most 0.2; to LYPH, at most 0.2; to YPET, at most 0.2.
Turning to WAAS, the “one-hybrid fitness for binding NBS DNA” value is at most 0.2.
In the case of MQNL, the “one-hybrid fitness for binding NBS DNA” value is at most 0.2.
QYVC: the “one-hybrid fitness for binding NBS DNA” value was at most 0.2.
For the variant ATTR, the “one-hybrid fitness for binding NBS DNA” value is at most 0.2.
To QLKF belongs at most 0.2; to VVWL, at most 0.2; to VMVC, at most 0.2.
Take TLGK: the “one-hybrid fitness for binding NBS DNA” value is at most 0.2.
For GRGV, the “one-hybrid fitness for binding NBS DNA” value is at most 0.2.
Under FTFS stands at most 0.2; under DVGR, at most 0.2.
As to PLLM, the “one-hybrid fitness for binding NBS DNA” value is at most 0.2.
Under INCD stands at most 0.2.
Turning to SDVD, the “one-hybrid fitness for binding NBS DNA” value is at most 0.2.
With ISGS, the “one-hybrid fitness for binding NBS DNA” value was at most 0.2.
As for FSGC, the “one-hybrid fitness for binding NBS DNA” value was at most 0.2.
On to RCQA, for which the “one-hybrid fitness for binding NBS DNA” value is 0.238.
With SGAA, the “one-hybrid fitness for binding NBS DNA” value is at most 0.2.
Regarding KTRE, the “one-hybrid fitness for binding NBS DNA” value was at most 0.2.
Consider KSRF, for which the “one-hybrid fitness for binding NBS DNA” value was at most 0.2.
To PVIP belongs at most 0.2; to CTSW, at most 0.2; to RNTK, at most 0.2.
IKTL: the “one-hybrid fitness for binding NBS DNA” value is at most 0.2.
RYCP: the “one-hybrid fitness for binding NBS DNA” value was at most 0.2.
Under MTHF stands at most 0.2.
To FCNS belongs at most 0.2; to QTNK, 0.304; to SPTD, at most 0.2.
To DYNM belongs at most 0.2; to QRCY, 0.508; to LAWY, at most 0.2.
As for YQLC, the “one-hybrid fitness for binding NBS DNA” value is at most 0.2.
As for MLIN, the “one-hybrid fitness for binding NBS DNA” value is at most 0.2.
Turning to RYNE, the “one-hybrid fitness for binding NBS DNA” value was at most 0.2.
Take PHVY: the “one-hybrid fitness for binding NBS DNA” value was at most 0.2.
For the variant EQVT, the “one-hybrid fitness for binding NBS DNA” value was at most 0.2.
Under TYAY stands at most 0.2; under LRAQ, at most 0.2; under SQKK, at most 0.2.
For the variant TGRG, the “one-hybrid fitness for binding NBS DNA” value was at most 0.2.
Take KRKG: the “one-hybrid fitness for binding NBS DNA” value stood at 0.234.
To NMMR belongs at most 0.2; to RSME, at most 0.2.
For IDYY, the “one-hybrid fitness for binding NBS DNA” value is at most 0.2.
Take FSHR: the “one-hybrid fitness for binding NBS DNA” value is at most 0.2.
To QQKI belongs 0.399; to ALTC, at most 0.2.
As to SSHN, the “one-hybrid fitness for binding NBS DNA” value was at most 0.2.
Consider VHKV, for which the “one-hybrid fitness for binding NBS DNA” value was at most 0.2.
Turning to QNRC, the “one-hybrid fitness for binding NBS DNA” value is at most 0.2.
For the variant IGNG, the “one-hybrid fitness for binding NBS DNA” value is at most 0.2.
For the variant YFVT, the “one-hybrid fitness for binding NBS DNA” value was at most 0.2.
GPHG: the “one-hybrid fitness for binding NBS DNA” value was at most 0.2.
As for ETVS, the “one-hybrid fitness for binding NBS DNA” value is at most 0.2.
Under DGVN stands at most 0.2.

For the origin of these results see a collection of fitness landscapes (doi:10.1016/j.celrep.2020.107928).
